Tests used:
[1] = target: T1, MSLN-Avi ectodomain (human ectodomain of MSLN) (human, UniProt Q13421 296-598); experiment: SPR, Biacore T100, 25 C, antibody captured on goat anti-human Fc, MSLN-Avi as analyte
[2] = target: T1, MSLN-Avi ectodomain (human ectodomain …); experiment: SPR, Biacore T100, 25 C; amatuximab captured on goat anti-human Fc (81.9 +/- 0.6 RUs), MSLN-Avi as analyte 0.20-50 nM in duplicate (50 nM in triplicate, long dissociation in the inset), 1:1 fit
[3] = target: T1, MSLN-Avi ectodomain (human ectodomain …); experiment: written beside the aligned structure; no assay named on the sheet (the value is that of the SPR fit of FIG. 7D)

T1 sequence (Q13421 other isoform, or with tags, fused parts or gaps): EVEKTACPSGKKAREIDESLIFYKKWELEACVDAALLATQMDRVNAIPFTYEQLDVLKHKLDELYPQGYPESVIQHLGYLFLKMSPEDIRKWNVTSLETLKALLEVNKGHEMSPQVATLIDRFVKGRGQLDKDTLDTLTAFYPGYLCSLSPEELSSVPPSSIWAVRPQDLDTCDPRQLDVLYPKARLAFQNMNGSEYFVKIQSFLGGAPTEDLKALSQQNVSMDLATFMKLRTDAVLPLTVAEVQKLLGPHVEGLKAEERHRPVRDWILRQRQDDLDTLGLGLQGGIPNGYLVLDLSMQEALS

fold higher binding affinity (lower KD) than the 1A12 anti-MSLN antibody [1]: ~600 fold
Kd [2]: 0.112 nM
koff [2]: 5.33e-05 s⁻¹
kon [2]: 474000 M⁻¹ s⁻¹
Kd [3]: 0.112 nM
B1: amatuximab (antibody, V domains shown)
VH: not shown
VL: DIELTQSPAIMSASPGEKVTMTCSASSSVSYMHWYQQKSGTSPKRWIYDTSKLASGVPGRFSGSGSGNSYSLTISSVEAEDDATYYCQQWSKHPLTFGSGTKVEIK

From patent US20210309755A1 (FRED HUTCHINSON CANCER CENTER, published 2021)
